# Reference: the supplement of paper PMC8728848
# Some of the results follow.
# Columns and labels:
# Experiment in all cases: glycan array binding signal (z-score within array); higher = stronger binding
# Settings in all cases: glycan notation: IUPAC condensed, linker removed
# [1] = molecular target: Gal(b1-4)GlcNAc(b1-2)Man(a1-3)[Gal(b1-4)GlcNAc(b1-2)Man(a1-6)]Man(b1-4)GlcNAc(b1-4)[Fuc(a1-6)]GlcNAc
# Method in brief: (§1)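 Negative Z-scores can be read as non-binding. The Z-score is calculated within each array and then averaged across arrays of one protein sequence at different concentrations or buffers and across linkers. Arrays, 3228 in all, were curated from the Consortium for Functional Glycomics database and kept only where the protein sequence was available.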
# [2] = molecular target: Gal(b1-4)GlcNAc(b1-2)Man(a1-3)[Gal(b1-4)GlcNAc(b1-2)Man(a1-6)][Gal(b1-4)GlcNAc(b1-4)]Man(b1-4)GlcNAc(b1-4)[Fuc(a1-6)]GlcNAc
# Method in brief: as §1
# [3] = molecular target: Gal(b1-4)GlcNAc(b1-2)Man(a1-3)[Gal(b1-4)GlcNAc(b1-2)Man(a1-6)][GlcNAc(b1-4)]Man(b1-4)GlcNAc(b1-4)[Fuc(a1-6)]GlcNAc
# Method in brief: as §1
# [4] = molecular target: Gal(b1-4)GlcNAc(b1-2)Man(a1-3)[GlcNAc(b1-2)Man(a1-6)]Man(b1-4)GlcNAc(b1-4)GlcNAc
# Method in brief: as §1
# [5] = molecular target: Gal(b1-4)GlcNAc(b1-2)Man(a1-3)[GlcNAc(b1-4)][Gal(b1-4)GlcNAc(b1-2)Man(a1-6)]Man(b1-4)GlcNAc(b1-4)GlcNAc
# Method in brief: as §1
# [6] = molecular target: Gal(b1-4)GlcNAc(b1-2)Man(a1-3)[Man(a1-6)]Man(b1-4)GlcNAc(b1-4)GlcNAc
# Method in brief: as §1
# [7] = molecular target: Gal(b1-4)GlcNAc(b1-2)Man(a1-6)Man(b1-4)GlcNAc(b1-4)GlcNAc
# Method in brief: as §1
# [8] = molecular target: Gal(b1-4)GlcNAc(b1-2)Man(a1-6)[GlcNAc(b1-2)Man(a1-3)]Man(b1-4)GlcNAc(b1-4)GlcNAc
# Method in brief: as §1
# [9] = molecular target: Gal(b1-4)GlcNAc(b1-2)Man(a1-6)[Man(a1-3)]Man(b1-4)GlcNAc(b1-4)GlcNAc
# Method in brief: as §1
# [10] = molecular target: Gal(b1-4)GlcNAc(b1-2)[Gal(b1-4)GlcNAc(b1-4)]Man(a1-3)[Gal(b1-4)GlcNAc(b1-2)Man(a1-6)]Man(b1-4)GlcNAc(b1-4)GlcNAc
# Method in brief: as §1
# [11] = molecular target: Gal(b1-4)GlcNAc(b1-2)[Gal(b1-4)GlcNAc(b1-4)]Man(a1-3)[Gal(b1-4)GlcNAc(b1-2)[Gal(b1-4)GlcNAc(b1-6)]Man(a1-6)]Man(b1-4)GlcNAc(b1-4)GlcNAc
# Method in brief: as §1
# [12] = molecular target: Gal(b1-4)GlcNAc(b1-2)[Gal(b1-4)GlcNAc(b1-4)]Man(a1-3)[GlcNAc(b1-4)][Gal(b1-4)GlcNAc(b1-2)Man(a1-6)]Man(b1-4)GlcNAc(b1-4)GlcNAc
# Method in brief: as §1
# [13] = molecular target: Gal(b1-4)GlcNAc(b1-2)[Gal(b1-4)GlcNAc(b1-4)]Man(a1-3)[GlcNAc(b1-4)][Gal(b1-4)GlcNAc(b1-2)[Gal(b1-4)GlcNAc(b1-6)]Man(a1-6)]Man(b1-4)GlcNAc(b1-4)GlcNAc
# Method in brief: as §1
# [14] = molecular target: Gal(b1-4)GlcNAc(b1-2)[Gal(b1-4)GlcNAc(b1-6)]Man(a1-6)[Gal(b1-4)GlcNAc(b1-2)Man(a1-3)]Man(b1-4)GlcNAc(b1-4)GlcNAc
# Method in brief: as §1
# [15] = molecular target: Gal(b1-4)GlcNAc(b1-2)[Gal(b1-4)GlcNAc(b1-6)]Man(a1-6)[Gal(b1-4)GlcNAc(b1-2)Man(a1-3)]Man(b1-4)GlcNAc(b1-4)[Fuc(a1-6)]GlcNAc
# Method in brief: as §1
# [16] = molecular target: Gal(b1-4)GlcNAc(b1-2)[Gal(b1-4)GlcNAc(b1-6)]Man(a1-6)[GlcNAc(b1-4)][Gal(b1-4)GlcNAc(b1-2)Man(a1-3)]Man(b1-4)GlcNAc(b1-4)GlcNAc
# Method in brief: as §1
# [17] = molecular target: Gal(b1-4)GlcNAc(b1-2)[Gal(b1-4)GlcNAc(b1-6)]Man(a1-6)[GlcNAc(b1-4)][Gal(b1-4)GlcNAc(b1-2)[Gal(b1-4)GlcNAc(b1-4)]Man(a1-3)]Man(b1-4)GlcNAc(b1-4)[Fuc(a1-6)]GlcNAc
# Method in brief: as §1
# [18] = molecular target: Gal(b1-4)GlcNAc(b1-3)Gal(b1-3)GalNAc
# Method in brief: as §1
# [19] = molecular target: Gal(b1-4)GlcNAc(b1-3)Gal(b1-3)GlcNAc
# Method in brief: as §1
binder,measurement,setting,value
PX14367B-bvu-516-23-516 (Bacteroides vulgatus) (protein) LDTIPTTYVDAGSVFGKTGDAEKVLNGGWNYLMETFNSYANPGYGAMLRANDAMGSDVVLNSKYGFRTHNEFSAIYGKGGTNTLSWLLAYRVINDCNGVLDNIDAAEGTQADRNRIKGQALALRGFLYLHLASCYSFAIDKDPDAVCAPIYTQSTDETIAAEGKPASSVSEVYAQSINDLEEALELIPETYVRDAKHKIDNEVVLGILSRACLYARQWEKAKTYSDKLLAKDNYLMTESEYKAGFNSVDNKEWIWGHAQTNDQSNASYQFHYLDTTTKGSYYYSFNVDPYFRDLFEDGDYRKEMLFWATDPGADVESAAYVWMRNSKFRFRDIENQLGDIVLMRVAEIYLINAEAKAHLNDPDAINKLNDLKTARGAKTIHTNLSQQDLLETIWLERRKELWGEGFSLIDIIRNQQTVVRNAYPEGPIDYIYTDENGQTHTLKKKTQGHRFFNFPDKSAFCPNSKYYLYRITDSEELANKNLYKDHPKLSIYTK,glycan array binding signal (z-score),[1],0.006
same,glycan array binding signal (z-score),[2],-0.016
same,glycan array binding signal (z-score),[3],-0.366
same,glycan array binding signal (z-score),[4],-0.17
same,glycan array binding signal (z-score),[5],0.131
same,glycan array binding signal (z-score),[6],-0.244
same,glycan array binding signal (z-score),[7],-0.199
same,glycan array binding signal (z-score),[8],-0.241
same,glycan array binding signal (z-score),[9],4.25
same,glycan array binding signal (z-score),[10],-0.186
same,glycan array binding signal (z-score),[11],-0.285
same,glycan array binding signal (z-score),[12],1.28
same,glycan array binding signal (z-score),[13],-0.05
same,glycan array binding signal (z-score),[14],-0.322
same,glycan array binding signal (z-score),[15],0.627
same,glycan array binding signal (z-score),[16],1.51
same,glycan array binding signal (z-score),[17],-0.287
same,glycan array binding signal (z-score),[18],-0.357
same,glycan array binding signal (z-score),[19],0.381
